These are yes or no findings as the source states them, for the method shown. For part of these data: In cells and extracts the contact can be indirect. Some results given as binding are weak or reduced against the parent protein; the word gives no strength. Sequences can lack the tags named with a protein.

By UniProt entry, the sequences of proteins in these tests, tags left out.
UniProt Q9Y4G2: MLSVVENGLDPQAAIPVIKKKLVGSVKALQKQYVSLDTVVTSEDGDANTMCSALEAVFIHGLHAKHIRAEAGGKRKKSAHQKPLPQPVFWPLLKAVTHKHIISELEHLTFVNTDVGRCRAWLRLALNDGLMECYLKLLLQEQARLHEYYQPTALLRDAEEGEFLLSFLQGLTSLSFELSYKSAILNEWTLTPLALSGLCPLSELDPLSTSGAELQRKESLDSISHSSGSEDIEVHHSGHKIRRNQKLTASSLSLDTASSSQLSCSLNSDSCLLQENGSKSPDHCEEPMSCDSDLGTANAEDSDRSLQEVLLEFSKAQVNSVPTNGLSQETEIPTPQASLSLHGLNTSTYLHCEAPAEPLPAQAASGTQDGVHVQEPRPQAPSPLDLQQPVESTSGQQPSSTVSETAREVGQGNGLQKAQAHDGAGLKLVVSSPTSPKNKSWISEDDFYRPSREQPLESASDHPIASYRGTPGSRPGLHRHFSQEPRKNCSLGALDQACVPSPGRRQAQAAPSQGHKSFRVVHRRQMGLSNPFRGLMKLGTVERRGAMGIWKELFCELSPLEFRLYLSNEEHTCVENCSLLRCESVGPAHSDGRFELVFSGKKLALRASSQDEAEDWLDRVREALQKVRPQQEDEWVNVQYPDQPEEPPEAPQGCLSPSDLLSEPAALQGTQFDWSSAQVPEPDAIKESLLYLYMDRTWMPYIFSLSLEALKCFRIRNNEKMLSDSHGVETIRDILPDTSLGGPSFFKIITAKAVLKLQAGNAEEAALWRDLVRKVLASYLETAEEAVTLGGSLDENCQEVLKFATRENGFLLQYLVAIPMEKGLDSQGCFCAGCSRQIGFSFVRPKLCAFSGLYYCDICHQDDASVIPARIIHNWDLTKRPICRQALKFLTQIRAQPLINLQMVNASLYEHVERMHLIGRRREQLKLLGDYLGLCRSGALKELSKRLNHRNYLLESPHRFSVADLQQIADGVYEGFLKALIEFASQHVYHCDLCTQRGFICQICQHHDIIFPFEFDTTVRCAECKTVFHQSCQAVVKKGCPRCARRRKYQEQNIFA

In assay [1] the target is T1, GFP-tagged Munc13-4, Q70J99.
T1 chain: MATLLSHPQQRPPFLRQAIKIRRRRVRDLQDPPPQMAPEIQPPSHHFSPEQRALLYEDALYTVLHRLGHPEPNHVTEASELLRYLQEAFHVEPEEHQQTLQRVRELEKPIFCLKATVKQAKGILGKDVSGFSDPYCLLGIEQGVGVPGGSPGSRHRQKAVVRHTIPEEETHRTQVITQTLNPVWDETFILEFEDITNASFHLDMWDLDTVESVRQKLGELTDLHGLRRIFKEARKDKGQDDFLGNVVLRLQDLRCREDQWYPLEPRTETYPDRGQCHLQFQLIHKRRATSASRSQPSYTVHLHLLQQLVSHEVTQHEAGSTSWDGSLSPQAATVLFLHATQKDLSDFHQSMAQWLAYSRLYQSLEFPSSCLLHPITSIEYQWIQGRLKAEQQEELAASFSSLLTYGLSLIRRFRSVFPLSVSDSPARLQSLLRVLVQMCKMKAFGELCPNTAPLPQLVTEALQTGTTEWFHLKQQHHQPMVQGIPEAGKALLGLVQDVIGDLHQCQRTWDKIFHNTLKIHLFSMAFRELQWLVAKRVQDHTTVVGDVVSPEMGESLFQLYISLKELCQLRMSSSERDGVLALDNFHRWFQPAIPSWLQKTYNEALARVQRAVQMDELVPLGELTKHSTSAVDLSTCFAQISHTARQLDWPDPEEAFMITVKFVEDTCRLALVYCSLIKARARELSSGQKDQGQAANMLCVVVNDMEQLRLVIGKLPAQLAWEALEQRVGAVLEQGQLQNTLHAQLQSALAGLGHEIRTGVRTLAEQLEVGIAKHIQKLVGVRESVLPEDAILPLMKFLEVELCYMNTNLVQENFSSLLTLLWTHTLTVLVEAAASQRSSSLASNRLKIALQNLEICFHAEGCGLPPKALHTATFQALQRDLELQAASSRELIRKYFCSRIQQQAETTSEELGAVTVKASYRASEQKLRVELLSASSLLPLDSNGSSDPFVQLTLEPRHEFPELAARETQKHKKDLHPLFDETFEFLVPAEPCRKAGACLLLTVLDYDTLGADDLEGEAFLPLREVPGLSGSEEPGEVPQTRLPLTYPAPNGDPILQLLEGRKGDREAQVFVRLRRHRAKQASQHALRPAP
Description: co-IP; lysates of BON cells expressing GFP or GFP-Munc13-4 precipitated with GFP nanobodies; western blotting of the pull-downs with antibodies to the partners. The note with it: remark: other sources report otherwise. In general terms: In western blotting, separated proteins are transferred to a membrane and probed.

In a further assay the target is T2, GFP-tagged Munc13-4 (UniProt Q70J99).
T2 sequence: T1 chain
Described as above.

In assay [2] the target is GFP-tagged PLEKHM1 (from HEK293FT, immobilised) (UniProt Q9Y4G2). Description: pull-down; GFP-PLEKHM1 (or GFP) immobilised on GFP nanobody beads, incubated with the indicated concentrations of purified Munc13-4; SDS-PAGE, Imperial blue staining; both purified.

B1: syntaxin8 (STX8), Q9UNK0 1-236 (protein)
chain: MAPDPWFSTYDSTCQIAQEIAEKIQQRNQYERKGEKAPKLTVTIRALLQNLKEKIALLKDLLLRAVSTHQITQLEGDRRQNLLDDLVTRERLLLASFKNEGAEPDLIRSSLMSEEAKRGAPNPWLFEEPEETRGLGFDEIRQQQQKIIQEQDAGLDALSSIISRQKQMGQEIGNELDEQNEIIDDLANLVENTDEKLRNETRRVNMVDRKSASCGMIMVILLLLVAIVVVAVWPTN
Consider B1, for which the binding result in assay [1] is listed as “binds”.

B2: YKT6 (protein, UniProt O15498 1-198)
chain: MKLYSLSVLYKGEAKVVLLKAAYDVSSFSFFQRSSVQEFMTFTSQLIVERSSKGTRASVKEQDYLCHVYVRNDSLAGVVIADNEYPSRVAFTLLEKVLDEFSKQVDRIDWPVGSPATIHYPALDGHLSRYQNPREADPMTKVQAELDETKIILHNTMESLLERGEKLDDLVSKSEVLGTQSKAFYKTARKQNSCCAIM
Regarding B2, the binding entry in the assay with GFP-tagged Munc13-4 is “no binding”.

B3: HOPS complex subunit VPS41 (protein, UniProt P49754 1-854)
chain: MAEAEEQETGSLEESTDESEEEESEEEPKLKYERLSNGVTEILQKDAASCMTVHDKFLALGTHYGKVYLLDVQGNITQKFDVSPVKINQISLDESGEHMGVCSEDGKVQVFGLYSGEEFHETFDCPIKIIAVHPHFVRSSCKQFVTGGKKLLLFERSWMNRWKSAVLHEGEGNIRSVKWRGHLIAWANNMGVKIFDIISKQRITNVPRDDISLRPDMYPCSLCWKDNVTLIIGWGTSVKVCSVKERHASEMRDLPSRYVEIVSQFETEFYISGLAPLCDQLVVLSYVKEISEKTEREYCARPRLDIIQPLSETCEEISSDALTVRGFQENECRDYHLEYSEGESLFYIVSPRDVVVAKERDQDDHIDWLLEKKKYEEALMAAEISQKNIKRHKILDIGLAYINHLVERGDYDIAARKCQKILGKNAALWEYEVYKFKEIGQLKAISPYLPRGDPVLKPLIYEMILHEFLESDYEGFATLIREWPGDLYNNSVIVQAVRDHLKKDSQNKTLLKTLAELYTYDKNYGNALEIYLTLRHKDVFQLIHKHNLFSSIKDKIVLLMDFDSEKAVDMLLDNEDKISIKKVVEELEDRPELQHVYLHKLFKRDHHKGQRYHEKQISLYAEYDRPNLLPFLRDSTHCPLEKALEICQQRNFVEETVYLLSRMGNSRSALKMIMEELHDVDKAIEFAKEQDDGELWEDLILYSIDKPPFITGLLNNIGTHVDPILLIHRIKEGMEIPNLRDSLVKILQDYNLQILLREGCKKILVADSLSLLKKMHRTQMKGVLVDEENICESCLSPILPSDAAKPFSVVVFHCRHMFHKECLPMPSMNSAAQFCNICSAKNRGPGSAILEMKK
Regarding B3, the binding entry with GFP-tagged Munc13-4 is recorded as “binds”.

B4: syntaxin7 (STX7), O15400 1-261 (protein)
chain: MSYTPGVGGDPAQLAQRISSNIQKITQCSVEIQRTLNQLGTPQDSPELRQQLQQKQQYTNQLAKETDKYIKEFGSLPTTPSEQRQRKIQKDRLVAEFTTSLTNFQKVQRQAAEREKEFVARVRASSRVSGSFPEDSSKERNLVSWESQTQPQVQVQDEEITEDDLRLIHERESSIRQLEADIMDINEIFKDLGMMIHEQGDVIDSIEANVENAEVHVQQANQQLSRAADYQRKSRKTLCIIILILVIGVAIISLIIWGLNH
For B4, in assay [1], the binding entry was “binds”.

B5: twin-Strep-tagged Munc13-4 (protein, UniProt Q70J99 1-1090)
chain: T1 chain
B5: the binding entry in assay [2] is on record as “binds”.

B6: vesicle transport through interaction with t-SNAREs homolog (VTI1B), Q9UEU0 1-232 (protein)
chain: MASSAASSEHFEKLHEIFRGLHEDLQGVPERLLGTAGTEEKKKLIRDFDEKQQEANETLAEMEEELRYAPLSFRNPMMSKLRNYRKDLAKLHREVRSTPLTATPGGRGDMKYGIYAVENEHMNRLQSQRAMLLQGTESLNRATQSIERSHRIATETDQIGSEIIEELGEQRDQLERTKSRLVNTSENLSKSRKILRSMSRKVTTNKLLLSIIILLELAILGGLVYYKFFRSH
Take B6: the binding result in assay [1] is on record as “binds”.

The record behind these values is paper PMC12425082.
